The list shows a part of the results.
Test system: PfHDP1 homeodomain (GST-tagged)
Assay: gcPBM binding intensity (ln(normalized median fluorescence intensity)); higher = stronger DNA binding
Procedure, shortened: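 GST-fused DNA-binding domains of P. falciparum, expressed in E. coli, were applied at about 25 μg on average for 1 h to an Agilent 4 × 180k array of primer-extended double-stranded 36-bp intergenic genomic probes and negative controls. Binding intensity is the highest Masliner-normalised natural-log median intensity across replicate spots of either probe orientation, measured with Alexa488 anti-GST antibody and a 488 nm scan.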

Sequence | gcPBM binding intensity (ln)
TTCATGTCCTATTAATGTACTCTACACACATATAAG [XGTACX_site899] | 6.76
AAAAAAAAAAAAAAAACACACACATATATATATATA [CACACA_site8571] | 9.17
TGTATATAATCGAGTGCACACACAAAAAAAAAGTGA [CACACA_site8417] | 10.1
TTTATTTATTTTTGTTGTACACTTGTATATATTATT [XGTACX_site6486] | 6.94
ATTTTATATACACTTTGTACTTATTTTATTCTTCTT [XGTACX_site4200] | 7.1
TTTAAAAAAAAAAATACACACATAAAAATTTTCAAA [CACACA_site703] | 6.43
ATTATAAGAAGGGGGGGTACATAAATATAAATGTAT [XGTACX_site5624] | 8.12
TTAATAATTAATTATAGTACACATTTATATTAATAA [XGTACX_site190] | 6.34
TTATTTAAAAAATTTTTAAATATACAAAAAAAAAAA [TGCATGCA_negctrl_site464] | 6.24
TTTAATTTTCGGTGTGCACACAACTATGAGTTTTTA [CACACA_site3034] | 11.2
AAAAAAAAAAAAAAAGCATGCACATATTATTTTTTT [TGCATGCA_site416] | 7.94
ATTATATTTTGTAAATGTACATTTATATATTTTGTA [XGTACX_site1226] | 6.61
ATTCATAAACGTGTGTTAATATGAATTTAAACATAA [XGTACX_negctrl_site213] | 6.27
ATATAAATAAAATATACACACATAAATATAACGACA [CACACA_site1637] | 7
AACATTTCCTTTCTGTGTACATATAAACCCATCTAT [XGTACX_site2071] | 7.29
ACGAAGATTTATCTTGCACACGCAAAAAAAAAAAAA [CACACA_site7933] | 7.58
TTTTTTTTTTTTTTTTTTTTTTTTTTTTTTTTTTTT [CACACA_negctrl_site104] | 7.42
GTATAAAAAAATAAAAGTACAAAAAAAAAAGACTGA [XGTACX_site186] | 6.51
AAATAAAAAATATGAACACACATATATAACAAAATA [CACACA_site261] | 6.79
TACTGGTATCGATATAGTACATATAATATTATGTTA [XGTACX_site7490] | 6.53
AATTGAATAAATTAAACATGCACAGATGTTCTATTT [TGCATGCA_site692] | 7.37
AGGATTAAAAAAACATGTACGTATTTAAATATATTT [XGTACX_site8774] | 6.71
AAAAAAAAAAAAAACACACACACACCCATAAATATA [CACACA_site151] | 6.87

Sequence | gcPBM binding intensity (ln)
TTTGTGTTTATAAATTGTACAAAGGTGCAAGAAGAA [XGTACX_site2159] | 9.69
TGTTGTCCTAATTCTACACACAATGGTTTATTAAAA [CACACA_site2648] | 6.89
CATATACTTCTGTGCACACGAATATTTTTCTTCTTC [CACACA_site1407] | 11.2
TTTTAACGTAAAACATTGATGATATAAAAAATAGGA [GTGCAC_negctrl_site540] | 6.75
TATACTCATATTTTTACACACATATTTTTTCATATA [CACACA_site5412] | 6.99
AGGATATATAAGTATACACACATATTTATATTTATA [CACACA_site6239] | 6.34
TTAAAATATACATAAACACACACAAAACGTTTAAGA [CACACA_site8267] | 7.05
AATTTAAAATATATAGTACACACGTGAACACAAATA [CACACA_site416] | 6.61
TGTATTTATAATAAAACACACATTTTTAATGTGCTC [CACACA_site4908] | 6.36
TAACAATAACTTTATACACACATAATATATATATAT [CACACA_site3543] | 8.65
TGTAAATTATAACGTGCACACATATTTAAAATGAAA [CACACA_site8915] | 9.88
AGATATTTATTGAGTGCATGTTATAAAGGGAAAAAA [TGCATGCA_site88] | 7.99
ATATAGAAAATGCATACACACTTTATAAATATATTT [CACACA_site6553] | 6.67
ATCCACTTTTTGAAGACACACACAAAAAAAAAAAAA [CACACA_site8818] | 6.49
AATTAGATGGATAAATGTACATAATGTGAATATATT [XGTACX_site86] | 6.93
TAAAAATAATTTGCATGTACATAGGTCGATGTATTT [XGTACX_site1357] | 6.42
AAAAAAAAAAAACACACACACAATAGTATATAAATC [CACACA_site956] | 6.71
ATATGATCATAAAACACACACACAAAAAAAAAAAAA [CACACA_site1806] | 6.32
TATTTTTATTATATGGTGCATATATACATACATATA | 9.96
TTCAAGCCCTTCTGCTTACACACAGTAATTATTGTG [CACACA_site2952] | 6.56
AAGTGCATATTATTCACACATAATAATTGTATACCT [CACACA_site5965] | 10.5
CAAAATAATAATAAAAGTACTAACATATTTATGAAA [XGTACX_site6078] | 6.27
TTCTTTTTATTTATATTTTCCCCTCTCTATAGCTAT [XGTACX_negctrl_site102] | 7.06

Sequence | gcPBM binding intensity (ln)
ATAATTCAAAAAAACACACAAATTACAAAATAAACT [CACACA_site6264] | 6.73
ATATTTCTGTGTGGATGTACATTATTAGCAGGCTTT [XGTACX_site6496] | 6.8
AAAATATATACACAAACATGCATATAATAAATAAAT [TGCATGCA_site711] | 6.52
AGGTAAAAATGGTAAGTGCATTAATGATAAAAAATG | 9.1
GAATATTCACATACTTGTACATATATATATATATAT [XGTACX_site7302] | 9.35
AAAAAAAAAAAACACACACACACACCGACACATACA [CACACA_site5576] | 6.76
ATATTTTGGGGACTTTTTAAAAAAGAAGTATTAAAA [CACACA_negctrl_site1228] | 6.6
GTAAATATATAAACATGTACATATATAAATATATAA [XGTACX_site7262] | 6.3
TGGCAAAATAGGCACACACACATATACCTATAGATT [CACACA_site7168] | 6.68
GTTTACATAGATAACTGTACGCAATGATATTAGACA [XGTACX_site1320] | 6.14
TATAAGAATAAAAAGGGTACATAAAATAATAATATA [XGTACX_site2355] | 6.56
CAAAAAAAATAAAACACACACACAAAAAAATAAAAA [CACACA_site466] | 6.78
TAATAATAGTACTGACATCGAAATATTATTAAAAAT [CACACA_negctrl_site255] | 6.24
GATAATTTTTTTCTCACACACAAATATTTTAATCAT [CACACA_site3666] | 6.63
AAATATATTATATCATATATTAAAGCATATATTAAA [CACACA_negctrl_site1624] | 6.1
TAGATACTTGTCATGGGTACATATCGTACCTTTTGG [XGTACX_site6781] | 6.36
CTCTTCTATATATAAGCATGCATTCATAATAATTTA [TGCATGCA_site679] | 7.04
TTTATATGATATATTACACACAAAAAAAAAAAAAAA [CACACA_site3549] | 6.27
CATTATGTCGTAAATACACACATACCTATACATACA [CACACA_site6763] | 6.79
AATATATAGCTAAAAACACACAAATATATACGCATA [CACACA_site3608] | 6.54
CCATAAGATATATGTAGTACATATTATATATATATA [XGTACX_site2104] | 8.62
TATACACATATATAAACACACAAAAAAAAAAAAAAA [CACACA_site7041] | 6.47
ATTTCATTTTATAAGTGTACAATAAAAAAAAAAAAA [XGTACX_site8677] | 6.51

Sequence | gcPBM binding intensity (ln)
GTTTACATTAAAAATTGTACTCTGTATGAATAATAT [XGTACX_site80] | 6.25
CTTAAAAAAACCTTAACACACATAAACTCTAATTTA [CACACA_site7430] | 6.13
GATGATACAAAGTAATGTACATAAATACACATATTG [XGTACX_site3177] | 6.59
ATATAAACAGAAAATAGTACTTTATATTGAAAAAAA [XGTACX_site7183] | 6.36
AAATTTGATATAAAAAGTACAAAATGTTCCTCAGCT [XGTACX_site809] | 6.15
AATTTATAATTATAGAGTACATATTTTTAATATATA [XGTACX_site2566] | 6.14
ACAGCTACCAGATACTGTACTTTTCTCCAGACTGCA [XGTACX_site2541] | 6.07
ATGTGATATAAGTACACACACATATGTATTTATAAC [CACACA_site6942] | 6.57
ATATACATAATCTTCTTGCACTTTTTTTTTTTTTTT [GTGCAC_site9410] | 7.25
TATATTTTGTTCTTTCCACACACAAATACATATATT [CACACA_site9348] | 7.11
ATATACACTTAATTTTTTATAAAAAAAAATTTATAT [CACACA_negctrl_site498] | 6.38
GTAATAATTTTTTGTAGTACACAAAAATTCATATTT [XGTACX_site2699] | 6.86
TTAAAATTAAAAATGCGTACACATATACATAAAAAA [XGTACX_site1915] | 6.6
ATTAATTTTAATAAAGGTACACGTAGTTTTTTATTA [XGTACX_site7868] | 6.03
AACAAAACCTTATATGTACACACATATACATCACAC [CACACA_site9037] | 6.88
TATATATATATATATTGTACTGAACGTTTTTTTTTG [XGTACX_site8060] | 9.05
GCTTAATGTCATATATCACACATGAAAATATATATA [CACACA_site5089] | 6.74
TTTTGATTTCCTATTGCACACTTTTTTTAAGTTTAT [CACACA_site1056] | 9.79
TGCATATACGCAAGCACACATATATATATATATATA [CACACA_site1069] | 9.53
TATATATATATATAATGTACATATAATATATTTATT [XGTACX_site7892] | 9.09

Source: the supplement of paper PMC11417369
